The campaign covered roughly 310,000 compounds. About 14,000 (4.5%) showed an effect of 50% or more. The effect is printed as a negative number. This is one part of the list.
biological target: human ether-à-go-go-related gene (hERG) potassium channel (human, UniProt Q12809); assay: primary screen, population patch clamp on CHO cells stably expressing hERG
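Note: peak tail current of the secondary pulse compared with the same well before compound.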

Chain of human ether-à-go-go-related gene (hERG) potassium channel (Q12809 whole entry, looked up): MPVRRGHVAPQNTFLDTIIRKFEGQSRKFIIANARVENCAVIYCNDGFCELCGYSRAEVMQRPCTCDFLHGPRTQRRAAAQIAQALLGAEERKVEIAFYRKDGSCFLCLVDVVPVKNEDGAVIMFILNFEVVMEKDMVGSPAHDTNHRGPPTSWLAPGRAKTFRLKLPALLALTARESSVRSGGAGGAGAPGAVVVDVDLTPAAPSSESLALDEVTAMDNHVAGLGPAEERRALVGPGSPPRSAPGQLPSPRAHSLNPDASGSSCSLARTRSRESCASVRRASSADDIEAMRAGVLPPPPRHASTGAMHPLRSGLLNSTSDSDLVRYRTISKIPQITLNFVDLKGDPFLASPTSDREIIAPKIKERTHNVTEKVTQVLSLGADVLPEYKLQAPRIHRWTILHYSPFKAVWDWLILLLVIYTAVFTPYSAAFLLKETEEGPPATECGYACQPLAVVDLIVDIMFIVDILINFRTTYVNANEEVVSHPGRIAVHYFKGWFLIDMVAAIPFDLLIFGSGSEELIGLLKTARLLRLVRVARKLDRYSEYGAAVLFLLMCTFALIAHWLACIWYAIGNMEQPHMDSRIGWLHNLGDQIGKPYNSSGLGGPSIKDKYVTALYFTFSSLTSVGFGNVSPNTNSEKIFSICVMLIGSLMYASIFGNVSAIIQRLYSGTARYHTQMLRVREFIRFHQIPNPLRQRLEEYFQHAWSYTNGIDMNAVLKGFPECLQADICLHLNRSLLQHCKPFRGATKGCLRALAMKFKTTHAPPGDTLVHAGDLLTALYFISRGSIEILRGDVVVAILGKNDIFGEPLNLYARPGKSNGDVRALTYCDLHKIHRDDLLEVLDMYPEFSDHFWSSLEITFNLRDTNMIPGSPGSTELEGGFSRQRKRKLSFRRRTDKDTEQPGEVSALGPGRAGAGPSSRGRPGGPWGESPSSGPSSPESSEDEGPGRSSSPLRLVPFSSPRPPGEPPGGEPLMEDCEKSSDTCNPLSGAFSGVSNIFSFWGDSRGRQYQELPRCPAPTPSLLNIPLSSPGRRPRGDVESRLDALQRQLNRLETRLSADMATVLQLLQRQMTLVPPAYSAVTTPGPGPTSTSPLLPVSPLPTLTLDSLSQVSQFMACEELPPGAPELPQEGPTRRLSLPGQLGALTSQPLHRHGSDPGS

SMILES | hERG current change (%, negative = inhibition) at 10uM [%]
O=C(O)c1ccc(Cl)c(S(=O)(=O)Nc2ccc(S(=O)(=O)Nc3cccc(Cl)c3)cc2)c1 | 16.1
C=CCn1c(N)c(C(=O)OCC)sc1=S | 3.45
Nc1ccc(OCCc2ccccc2)cc1 | 11.4
O=C(CCN1C(=O)/C(=C/c2ccccc2F)SC1=S)NC1C=CS(=O)(=O)C1 (centres unmarked) | 15.3
COC(=O)C1=C(c2cccc(C#N)c2)C[C@@H]2CC[C@H]1N2C(=O)N1CCC(C)CC1 | -17.1
CC1CCN(C(=S)NCCc2ccccc2)CC1 | -15.2
O=C(Nc1cnn(Cc2ccccc2)c1)NC12CC3CC(CC(C3)C1)C2 | 10.3
COC(=O)CCC/C=C1/SCC(NC(=O)c2ccccc2)/C1=N/O (centres unmarked) | 3.06
CCCNC(=O)c1cc(-c2ccc(OC)cc2)on1 | -0.519
COCC(=O)Nc1ccc(OC)c(Cl)c1 | -5.34
Oc1ccccc1N1CCN(Cc2ncc(-c3ccccc3)o2)CC1 | -21.7
COC(=O)c1c(NC(=S)Nc2ccc(F)cc2[N+](=O)[O-])sc2c1CCCCC2 | 4.46
Cc1cnc(NC(=O)CSc2nnc(N)s2)s1 | 30.9
O=c1c(Cc2ccc(F)cc2)c(O)ccn1Cc1cccc(Cl)c1 | 6.07
Cl.OCCN1CCN(CC(O)COc2ccc(C34CC5CC(CC(C5)C3)C4)cc2)CC1 (centres unmarked) | -7.09
CC(C)c1nc2sc3c(=O)[nH]c(=S)[nH]c3c2c2c1CCCC2 | 31.2
O=C1C=C(c2ccc(OC(F)(F)F)cc2)C[C@@H](c2ccc(F)cc2)C1 | -11.3
CC(C)n1nccc1NS(=O)(=O)c1ccccc1 | 4.04
CCN(CCCNC(=O)COc1cc(=O)n(C)c2ccccc12)c1ccccc1 | -41.3
CC(C)CNC(=S)N(CCCO)Cc1cc2cc3c(cc2[nH]c1=O)OCCO3 | 16
COc1cccc(NC(=O)c2cc3ccccc3o/c2=N\O)c1 | -16.1
O=C(CCc1nc(-c2ccc(Cl)cc2)no1)NC1CCCCC1 | 14.7
COc1cccc(NC(=O)NC2(C(=O)N3CCN(C)CC3)CCCCC2)c1 | 9.31

SMILES | hERG current change (%, negative = inhibition) at 10uM [%]
COc1ccc(Oc2coc3cc(OCC(=O)N4CCCCC4)ccc3c2=O)cc1 | -13.2
COP(=O)(Cc1ccc(C#N)o1)OC | 10
CC(=O)N1N=C(c2cccc(NS(C)(=O)=O)c2)CC1c1ccc2c(c1)OCO2 (centres unmarked) | -59.2
Nc1cc(N)nc(SCc2ccc(Cl)cc2)n1 | -6.03
O=c1oc2ccccc2c(O)c1CN1CCCCC1 | 13.9
O=[N+]([O-])c1ccc(C2CCCC/C2=N/OCc2ccc(F)cc2)c([N+](=O)[O-])c1 (centres unmarked) | -7.99
Cc1ccc(NC(=O)CC2=NC(=O)C(CC(=O)Nc3ccccc3C)S2)cc1 (centres unmarked) | 20.5
COC(=O)CCN(C(=O)c1ccc(OC(C)=O)cc1)c1ccccn1 | 9.21
O=C(O)c1cc(Br)ccc1NS(=O)(=O)c1cccc2nsnc12 | 13.9
O=C(CN1CCOCC1)Nc1ccc(Cl)cc1 | -1.12
CCOC(=O)CCCCC(=O)c1[nH]c(=O)[nH]c1CSc1nc2ccccc2[nH]1 | 23
CC(=O)Nc1sc2c(c1CN1CCN(c3ccc(F)cc3)CC1)CCCC2 | -6.73
Cc1n(-c2ccccc2)c2ccc(Cl)cc2[n+]1CCO.[I-] | 11.2
NS(=O)(=O)c1ccc(NC(=O)COC(=O)CCC2CCCC2)cc1 | 41.6
CSc1nc2ccc(NC(=O)c3nn(C(C)C)c(=O)c4ccccc34)cc2s1 | -1.98
Cc1ccc(CN2CCN(/N=C/c3ccc(C(=O)O)cc3)CC2)c(C)c1 | 5.78
CC(=O)c1cccc(CN2CCC(C(=O)Nc3cccc(-c4ccn[nH]4)c3)CC2)c1 | -3.45
CC1CCN(C(=O)COC(=O)c2cc3ccccc3cc2O)CC1 | 3.92
Cc1ccccc1C(=O)N1CCC(C(=O)N(CC(C)C)c2c(N)n(Cc3ccccc3)c(=O)[nH]c2=O)CC1 | 11.9
CCOC(=O)c1ccc(NC(=S)N2CCN(c3ccccn3)CC2)cc1 | 17.6
CCN1C(=O)[C@H]2[C@@H](c3ccc(C)cc3)N3C(=O)N(c4ccc(OC)cc4)C(=O)[C@@]3(Cc3ccc(Cl)cc3)[C@H]2C1=O | 5.97
CCOc1c2ccc(C(=O)NCc3ccc(OC)cc3)cc2nn1CCOC | 8.44
COc1ccc(/C=N/NC(=O)C2CCN(c3ncc(C(F)(F)F)cc3Cl)CC2)cc1 | -14.2

SMILES | hERG current change (%, negative = inhibition) at 10uM [%]
O=C(CN1CCN(S(=O)(=O)c2ccccc2F)CC1)NCC1(N2CCOCC2)CCCCC1 | -24.4
COc1ccc(/C=C(\NC(=O)c2cccs2)C(=O)N2CCOCC2)cc1OC | 3.19
CN(C)S(=O)(=O)c1ccc(NC(=O)C2CCCN(C(=O)c3ccc(Cl)cc3)C2)cc1 (centres unmarked) | -6.75
CCOC(=O)c1nnsc1NC(=O)Nc1ccc(OC)cc1 | 17.2
Cc1cccc2nc(Cn3c(=O)n(CCC(=O)NCc4ccco4)c(=O)c4sccc43)cc(=O)n12 | -5.78
CCN(CC)CCN(Cc1cc2ccc(C)cc2[nH]c1=O)C(=O)Nc1ccc(Cl)cc1 | -77.6
N#CCCN(C(=O)COC(=O)COc1ccccc1Cc1ccccc1)c1ccccc1 | 15
Cn1c(SCc2cccc(F)c2)nnc1-c1cnccn1 | 1.32
CC(C)N(C)CCOC(=O)/C=C/c1ccccc1.Cl | -4.98
COc1cccc(CN2CCNC(=O)C2CC(=O)NC2CCOCC2)c1OC (centres unmarked) | 29.1
CCCn1c(=N)c(C(=O)NC2CCCC2)cc2c(=O)n3cccc(C)c3nc21 | -77.4
Cc1ccc(C(=O)N2CCN(S(=O)(=O)c3ccc(C)cc3)CC2)cc1 | -20.1
COc1ccccc1N(CC(=O)Nc1ccccc1)S(=O)(=O)c1cccs1 | -1.84
Cc1ccc2nc(COc3ccc(Cl)cc3)cc(=O)n2c1 | 15
Cc1ccc(-c2nc3ccccc3c(=O)n2-c2ncccc2C)cc1 | -20.1
O=C(Nc1ccnc(-c2ccncc2)n1)c1ccccc1Cl | 26.8
CN(C)/C=N/c1sc2c(c1C#N)CCCC2 | -2.74
CCC(C)(C)n1nnnc1C(c1cccs1)N1CC=C(c2ccc(F)cc2)CC1 (centres unmarked) | -5.72
COC(=O)/C=C1/SC(=NC(=O)c2ccc(Cl)cc2)NC1=O | 26.7
O=C(NCCCn1ccnc1)c1ccc(OCC(F)(F)F)cc1 | -32
CCCC(=O)Nc1cc(Cl)ccc1C | 16.5
Cc1ccc(C(=O)Nc2cccnc2N2CCN(C)CC2)cc1 | -5.47
C[C@]12CCC(=O)C=C1CCC1C2CC[C@@]2(C)C1CC[C@@]2(O)CC#N (some centres unmarked) | -59.8

SMILES | hERG current change (%, negative = inhibition) at 10uM [%]
Cc1cc(Nc2ccccc2)n(C(=O)c2ccccc2)n1 | -0.73
COc1ccc(-c2nnc(SCC(=O)NC3CCCCC3)o2)cc1 | -8.16
O=C(NCCN1CCOCC1)c1ccc(Cl)nc1Cl | -2.02
COc1ccc(CCNC(=O)C2CC(=O)N(c3ccc(Br)cc3)C2)cc1OC (centres unmarked) | -34
CCOC(=O)CN(C(=O)CSc1nnc(COc2ccc(OC)cc2)n1C)c1ccccc1 | -24.5
CC(=O)N1CCN(C(=O)c2ccccc2NS(=O)(=O)c2ccc(F)cc2)CC1 | -0.557
COC(=O)c1cccc(N/C=C(\[N+](=O)[O-])S(=O)(=O)c2ccccc2)c1 | 8.62
CCOC(=O)c1sc(NC(=O)CN2CCCC2)c(C(=O)OCC)c1C | -6.37
O=C(c1cc(-c2ccc(Br)cc2)n[nH]1)N1CCN(C(=O)c2ccccc2Br)CC1 | -32.4
COC(=O)c1c(C)cc(O)c(C=O)c1O | 8.62
COC(=O)C1CCN(S(=O)(=O)Cc2ccccc2)CC1 | 13.5
Cc1cc(C(=O)N/N=C/c2c(C)[nH]c3ccccc23)n[nH]1 | 19.8
CSc1ccc(-c2nnn(CC(=O)NCc3ccccc3)n2)cc1 | 10.8
CCc1ccc(NC(=O)Nc2c(C)n(C)n(-c3ccccc3)c2=O)cc1 | 3.74
O=Cc1cn(CCC(=O)O)nc1-c1cc2ccccc2o1 | -5.41
O=C(COc1ccc2cc(Br)ccc2c1)N1CCCC1 | -50.1
COC(=O)Cn1c2ccc(OC)cc2c2nc3ccccc3nc21 | -7.43
COc1ccc(/C=N/n2c(-c3cc(C)[nH]n3)n[nH]c2=S)cc1OC | 18.6
CCOCC(=O)Nc1nnc(Cc2ccc(OC)c(OC)c2)s1 | 1.11
COc1ccc(S(=O)(=O)N(C)C)cc1NC(=O)CSc1ncccn1 | -11.8

— publication PMC4336329 (PLoS ONE, 2015)
